Screen size: about 150,000 compounds; about 540 (0.36%) showed an effect of 50% or more. Some of the results follow.

The assay concerns Plasmodium falciparum. The assay can be described thus: Primary screen in NF54 nanoGlo assay, in single point, at 2uM, 72h; a lower Z score goes with more inhibition. The format is functional, Erythrocyte. The settings on record: timepoint 72 hour.
Regarding `O=C(N[C@H]1CCOC12CCCC2)c1cc(F)cc2ccncc12`, the % Inhibition (usually the change of the read-out against control, counted positive when it falls) was -7% and the Z score is 1.29.
As to `Cn1cc(NCc2ccc3c(c2)OCO3)c(C(=O)Nc2cccc(Cl)c2)n1`, the “% Inhibition” value amounted to 4% and the Z score is -0.55.
`O=C(c1ccn(C(F)F)n1)N1C[C@@H]2CC[C@H]1CN(C1CCOCC1)C2`: the “% Inhibition” value is recorded as 0% and the Z score was -0.03.
In the case of `CCOc1ccc(C(=O)N2CCN(c3cccnc3)C(=O)C2)cn1`, the “% Inhibition” value was found to be 14% and the Z score is reported as -1.73.
Regarding `CN(Cc1ccccc1)C(=O)c1cn2c(n1)CCCC2`, the “% Inhibition” value is recorded as -5% and the Z score came to 0.82.
Take `CCN(CC)C(=O)c1ccc(-c2ccncc2)o1`: the “% Inhibition” value turned out to be 1% and the Z score was -0.18.
The matching figures for `Cc1noc(C)c1S(=O)(=O)NC[C@H](C)Oc1cccc(CN(C)Cc2ccsc2)c1`: -14% and 1.63.
For the compound `CC(C)COC[C@@H](O)CN1CCCN(c2ccc(NC(=O)c3ccc(F)cc3F)cn2)CC1`, the “% Inhibition” value was -5% and the Z score worked out at 0.96.
In the case of `Cc1ccnc(CC(=O)NC[C@@H](C(C)C)N(C)C)c1`, the “% Inhibition” value is given as 2% and the Z score is reported as -0.26.
With `COCCN(CC(=O)N(Cc1ccc(C)cc1)C1CCN(C(=O)Cc2ccc(OC)cc2)CC1)S(=O)(=O)c1ccccc1`, the “% Inhibition” value was -3% and the Z score was found to be 0.59.
As to `CCc1csc(CNC(=O)c2ccc(N[C@@H](C)c3nc(C)no3)nc2)n1`, the “% Inhibition” value was -4% and the Z score was 0.82.
The matching figures for `NC(=O)Cc1nc(Cc2n[nH]c3ccccc23)n(CCO)n1`: -5% and 0.84.
Take `CC(C)=CCO[C@H]1CCOC[C@H]1NC(=O)Cc1cc(F)ccc1F`: the “% Inhibition” value is reported as -17% and the Z score is 1.6.
In the case of `O=S1(=O)C[C@H](N2CCN(c3ccccc3F)CC2)[C@@H](S(=O)(=O)c2cccs2)C1`, the “% Inhibition” value is -11% and the Z score was 1.33.
For the compound `COc1ccc(CC(=O)N2CCC3(CC2)CN(C(C)=O)C[C@@H]3CO)cc1Cl`, the “% Inhibition” value was -12% and the Z score is 2.27.
With `COC(=O)[C@H](C)NC(=O)NC1CCCCC1`, the “% Inhibition” value is 13% and the Z score was -1.5.
The matching figures for `O=S(=O)(Cc1ccccc1F)N1CCC[C@H](Oc2cnccn2)C1`: -12% and 2.02.
The matching figures for `CCC1(CC)C(NCc2nnc3n2CCCCC3)CC1OC` (configuration not stated): 0% and -0.08.
For `COCCC(=O)N1CCCCN(C)C(=O)[C@H](C)NC(=O)COc2ccc(cc2OC)C(=O)NCCC1`, the “% Inhibition” value was determined as 2% and the Z score is -0.24.
On to `COc1ccc(CN(CCC(C)C)C[C@H](O)COC(C)C)cc1OC`, for which the “% Inhibition” value is listed as -3% and the Z score is on record as 0.37.
As for `CCn1nccc1S(=O)(=O)NCC1(CN2CCOCC2)CC1`, the “% Inhibition” value is given as -2% and the Z score came out at 0.37.
With `Cn1c(=O)n(C2CCN(C(=O)c3cccs3)CC2)c2ncncc21`, the “% Inhibition” value was -16% and the Z score came to 2.63.
With `Cc1noc(C)c1C(=O)Nc1ccc2sncc2c1`, the “% Inhibition” value was -14% and the Z score is given as 1.56.
Regarding `Cc1cnc2ccccc2c1NC(=O)COc1cccc(Cl)c1`, the “% Inhibition” value is -4% and the Z score is reported as 0.58.
`CCc1noc(C)c1C(=O)Nc1ncc(Cc2ccccc2)s1`: the “% Inhibition” value was -3% and the Z score is 0.42.
Turning to `CCc1cc(C(=O)N[C@H]2CC(C)(C)Cc3c2cnn3-c2ccc(OC)cc2)[nH]n1`, the “% Inhibition” value amounted to 5% and the Z score is recorded as -0.75.
Consider `c1ccc(Cn2ccnc2CCNc2ncccn2)cc1`, for which the “% Inhibition” value came out at 33% and the Z score is reported as -3.73.
Regarding `Cc1ccc(CN2CCCn3nc(CNC(=O)C4CCC4)cc3C2)c(F)c1`, the “% Inhibition” value was 4% and the Z score was -0.37.
Turning to `CC(C)(C)C(=O)NCCc1ccc(F)cc1`, the “% Inhibition” value is -7% and the Z score stood at 1.07.
With `CCc1nsc(N2CCC[C@H](CO)C2)n1`, the “% Inhibition” value was -12% and the Z score amounted to 1.59.
With `COc1cccc([C@@H]2CCCCN2C(=O)CCc2ccccn2)c1`, the “% Inhibition” value came out at 3% and the Z score is reported as -0.62.
As for `CCC(=O)C1C(=O)CC(C)(C)C(c2cc(C)no2)C1=O` (configuration not stated), the “% Inhibition” value is on record as -11% and the Z score is given as 2.1.
Regarding `Cn1ncc2c(=O)n(Cc3cc(Cl)c4c(c3)OCCO4)cnc21`, the “% Inhibition” value stood at 3% and the Z score is -0.37.
Take `Cc1cc(=O)n(CC(=O)Nc2ccc(C)c(F)c2)c(N(C)Cc2ccccc2)n1`: the “% Inhibition” value is reported as -16% and the Z score was determined as 1.42.
Regarding `O=C(Nc1nccs1)c1c[nH]nc1-c1ccccc1`, the “% Inhibition” value is recorded as -1% and the Z score stood at 0.18.
In the case of `NC(=O)c1cc(Cl)ccc1OCC(=O)Nc1ccnn1C1CCCC1`, the “% Inhibition” value was -2% and the Z score stood at 0.2.
As for `CNC(=O)c1ccc(CN2CC(c3ccccc3)(c3ccccc3)CCC2=O)o1`, the “% Inhibition” value is reported as -23% and the Z score amounted to 4.54.
On to `CC(C)N(Cc1nnsc1Cl)c1ccc(F)cc1`, for which the “% Inhibition” value is -11% and the Z score came to 0.91.
As to `COc1ccc(CN(C(=O)[C@@H]2CCCO2)C2CCCC2)cc1OC(C)C`, the “% Inhibition” value was -6% and the Z score is 1.07.
For `Cn1c(=O)[nH]c(=O)c2[nH]c(CCC(=O)NC3c4ccccc4CC3O)nc21` (configuration not stated) the same measures were -6% and 0.99.
For the compound `COCC(C)(C)c1noc(-c2ccc(C(F)(F)F)c(=O)[nH]2)n1`, the “% Inhibition” value is listed as -6% and the Z score was 0.62.
Turning to `CCC(CC)C(=O)N(CCN(C)C)Cc1cc(NC(=O)NC(C)C)ccc1N(C)C`, the “% Inhibition” value is 5% and the Z score is recorded as -0.6.
For `O=C(Nc1nccc2cc[nH]c12)C1CC[C@@H]2C[C@@H]2CC1` (some centres not stated) the same measures were -5% and 1.03.
For `COc1ccc2c(c1)N(S(=O)(=O)Cc1ccc(F)cc1F)CCC2` the same measures were -4% and 0.5.
Regarding `Cc1cccc2c1O[C@H](C(=O)Nc1cc(C3CC3)ccn1)C2`, the “% Inhibition” value was -2% and the Z score is on record as 0.37.
For `CC(C)c1noc([C@H](C)NC(c2ccccc2)c2ccccc2)n1` the same measures were 1% and -0.12.
In the case of `Cc1cccc2c1NC(=O)[C@]21CC(=O)Nc2c1cnn2C(C)(C)C`, the “% Inhibition” value is on record as -14% and the Z score came out at 1.68.
Regarding `CC(C)C(=O)N1CCN(c2ccc(-c3noc(C(F)(F)F)n3)cn2)CC1`, the “% Inhibition” value is listed as -2% and the Z score is on record as 0.29.
Consider `C[C@H](CC(=O)O)CC(=O)N1CCCCCC1`, for which the “% Inhibition” value is listed as -1% and the Z score stood at 0.15.
In the case of `COc1ccc(-c2cn(Cc3cnc(C)cn3)nn2)cc1Cn1cccn1`, the “% Inhibition” value turned out to be 1% and the Z score is given as -0.05.
For `COCCNCC#CCOc1ccc(OC)cc1` the same measures were -13% and 1.62.
As to `Cc1cc(C(=O)N2CCOCC2)nn1CC(=O)NCc1c(F)cccc1F`, the “% Inhibition” value was -5% and the Z score is listed as 0.97.
As for `Cc1cccc(OCC(=O)N2CCC[C@H]2c2nnc(C(=O)Nc3ccc(F)cc3)s2)c1`, the “% Inhibition” value was determined as 0% and the Z score is reported as -0.09.
Take `Cc1ccc(CC(=O)N2CCCO2)cn1`: the “% Inhibition” value is given as -1% and the Z score was 0.07.
For the compound `CC(C)(C)OC(=O)N1CC(OC(=O)NC[C@H]2CCCO2)C1`, the “% Inhibition” value is recorded as 4% and the Z score is given as -0.73.
Consider `CN(CCc1ccccc1)[C@H]1CCCNC1`, for which the “% Inhibition” value is listed as -2% and the Z score is on record as 0.31.
With `CCC(C)C(NC(=O)c1ccco1)c1nc(-c2ccc3c(c2)OCO3)no1` (configuration not stated), the “% Inhibition” value is reported as -10% and the Z score is on record as 1.95.
With `OCc1ccccc1CNC(=NC1CC1)NCc1ccccc1`, the “% Inhibition” value was -3% and the Z score is given as 0.45.
Turning to `CC(C)C(=O)N1CC[C@H](CC(=O)NCc2ccccc2)C1`, the “% Inhibition” value came out at 38% and the Z score was -1.
For `CNC(=O)c1nc(C(=O)NCc2ccco2)cs1` the same measures were 33% and -4.82.
Take `Cc1ccc(NS(=O)(=O)c2cccc(N(C)C)c2)cn1`: the “% Inhibition” value is listed as -10% and the Z score was 0.97.
Take `CC(C)(C)n1nnc(C(=O)N(CC(F)F)c2ccc(F)cc2)n1`: the “% Inhibition” value was -7% and the Z score came out at 0.99.
In the case of `Cc1ccc2c(=O)c(C(=O)N3CCCC3)cn(CC(=O)Nc3c(C)cccc3C)c2n1`, the “% Inhibition” value is reported as 1% and the Z score is given as -0.22.
For the compound `CCOC(=O)c1c(N2CCN(c3ccccc3)CC2)cc(C)nc1C`, the “% Inhibition” value is recorded as -14% and the Z score is 1.82.
`Cc1ccc(-c2nc3nc(C)c(CC(=O)N4CCN(c5ccccc5)CC4)c(C)n3n2)cc1`: the “% Inhibition” value was -6% and the Z score is listed as 0.86.
In the case of `Cc1ccc(-n2nc(C(=O)N[C@@H](C)c3ccccc3)c(=O)n(Cc3cccc(F)c3)c2=O)cc1`, the “% Inhibition” value is on record as -3% and the Z score stood at 0.39.
As for `N#Cc1ccc(N[C@@H]2C=C[C@H](CO)C2)nc1`, the “% Inhibition” value worked out at 1% and the Z score is reported as -0.11.
Turning to `CCCCN(CC)c1cc(Oc2ccc(F)cc2F)ncn1`, the “% Inhibition” value is -7% and the Z score stood at 1.04.
The matching figures for `CN(Cc1nc2ccccc2c(=O)[nH]1)C(=O)[C@@H]1CCCCO1`: 10% and -1.41.
As for `CCN1CCc2ccc(NC(=O)N3CCC[C@]3(C)CO)cc21`, the “% Inhibition” value was -15% and the Z score turned out to be 2.06.
Take `CN(CCc1cccs1)S(=O)(=O)CCO[C@H]1CCOC1`: the “% Inhibition” value is recorded as -4% and the Z score amounted to 0.85.
As to `Cc1ccc(CN(Cc2ccco2)C(=O)Nc2ccccc2)o1`, the “% Inhibition” value was found to be 1% and the Z score is recorded as -0.21.
For `CCC(=O)Nc1ccc(Cc2nc3cc(C(=O)N4CCC(C)CC4)ccc3[nH]2)cc1` the same measures were -14% and 1.65.
Take `COc1cc(OC)cc(C(=O)N[C@@H](C)c2ccccc2)c1`: the “% Inhibition” value is given as -15% and the Z score is 1.65.
As to `Nc1c(-c2ccc(F)c(F)c2)ncnc1N1CCCCC1`, the “% Inhibition” value was -2% and the Z score turned out to be 0.23.
For `O=C1[C@@H]2Cc3c([nH]c4ccccc34)CN2C(=O)CN1Cc1ccccc1Cl`, the “% Inhibition” value is recorded as -4% and the Z score came out at 0.46.
For `CC1CCOC1C(=O)NCCCNc1cccc(F)c1` (configuration not stated), the “% Inhibition” value is listed as -7% and the Z score stood at 1.01.
As to `Cc1nc(-c2cccc(NC(=O)c3cc(Cl)c4c(c3)OCCCO4)c2)cs1`, the “% Inhibition” value was -25% and the Z score is listed as 2.95.
As to `Cc1nnc(CN2CCCCCC2CC(O)c2cccs2)s1` (configuration not stated), the “% Inhibition” value is -2% and the Z score came to 0.34.
With `Cc1cc(C(=O)N(Cc2cc(C3CC3)n(C)n2)C2CCCC2)no1`, the “% Inhibition” value is -8% and the Z score worked out at 1.52.
Turning to `Cn1ccc(C(=O)Nc2ccc(F)c(NC(=O)C3CCCCC3)c2)cc1=O`, the “% Inhibition” value is -30% and the Z score was 3.49.
As to `O=C(NCCN1CCOCC1)C1CCCCC1`, the “% Inhibition” value came to 2% and the Z score is -0.29.
With `c1cc(-c2nc([C@H]3CCOC3)n[nH]2)nc(-n2cnnc2)c1`, the “% Inhibition” value was -22% and the Z score came to 4.22.
With `CN(C)c1cccc(C(=O)N2CCC[C@H](c3nccn3CC3CC3)C2)c1`, the “% Inhibition” value is on record as -12% and the Z score came to 1.63.
As for `O=C(CN1CCCC1C1CCCC1)N1CCOC2CCCCC21` (configuration not stated), the “% Inhibition” value worked out at 8% and the Z score is on record as -1.43.
As for `Cc1ccc(-c2noc3c(NCc4cccc(Cl)c4)ncnc23)cc1`, the “% Inhibition” value is -14% and the Z score came out at 1.91.
